In all, about 44,000 compounds went through this assay and about 340 (0.77%) were called active. Inconclusive results (about 5%) are left out. Calls follow the shape of the dose curve; as a rule, active = well fitted inhibition curve with a large enough effect; inconclusive = small, poorly fitted or top-dose-only effect; inactive = flat fitted curve, though single readings scatter. The list shows a part of the results.
Assay: Acumen qHTS Assay for Inhibitors of the mTORC1 Signaling Pathway in MEF (Tsc2-/-, p53-/-) Cells: Sytravon;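 also: plate controls were DMSO for no effect and rapamycin for full effect; nearly all actives have a fitted effect of over 50% in size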
Settings: phospho-rpS6 immunofluorescence/PI, 24 h; series mostly up to 38.3 µM; activity change, negative = inhibition: at the top concentration
Method in brief: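 Tsc2-/-, p53-/- MEFs (empty-vector stable line) in DMEM + 10% FBS were treated with compounds 24 h at 37 degree Celsius, fixed, and immunostained for phospho-rpS6 (Alexa-488) with propidium iodide counterstain. Laser-scanning cytometry gave % positive cells, normalized against 7.5 nM rapamycin and DMSO.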

Activity change, negative = inhibition, inactive:
CCCNC(=O)C(Cc1ccccc1)NS(=O)(=O)c1ccc2c(c1)c(=O)n(C)c(=O)n2C (configuration not stated) -0.0264%
CCOc1ccc(C(=O)Nc2ccc3c(c2)OCCO3)cc1Br 1.02%
Cc1ccc(-c2csc3ncnc(Nc4ccc(C(=O)O)cc4)c23)cc1 6.72%
O=C(CN1CCN(Cc2ccccc2Cl)C1=O)NCCc1ccc(Cl)cc1 -20.7%
COc1ccccc1-c1nc2cc(NC(=O)c3ccccc3Cl)ccc2o1 14%
COc1ccc2c(c1)CCc1c(C(=O)Nc3ccc(OC)cc3OC)noc1-2 7.1%
COc1ccccc1NC(=O)c1sc2nc3n(c(=O)c2c1C)N=C(c1cccc(Br)c1)CS3 -0.0379%
COc1ccc(Cl)cc1NC(=O)CN1Cc2ccccc2C1=O 3.91%
COC(=O)c1ccc2c(c1)N(Cc1ccccc1)C(=O)c1ccccc1S2(=O)=O 0%
COc1ccc(Cn2c(C(=O)O)c(CNC3CCCCC3)c3ccc(C)cc32)cc1 -8.86%
COc1ccc(OC)c(/C=C(\C#N)c2nc(-c3ccc(F)cc3)cs2)c1 -0.846%
Cc1nc(S(=O)(=O)N2CCN(c3ccccc3F)CC2)cn1C 0.341%
Nc1c(-c2nc(-c3ccc4c(c3)OCO4)cs2)c2ccccn2c1C(=O)c1ccc(Cl)cc1 -5.37%
O=C(O)c1ccc(NC(=O)c2ccc(Br)c(S(=O)(=O)N3CCCC3)c2)cc1 -14.5%
CCOc1ccc(NC(=O)Cc2c[nH]c3ccccc23)cc1 -3.33%
Cc1ccc(SCc2nc(-c3ccc(C(=O)NCC(C)c4ccccc4)cc3)oc2C)cc1 (configuration not stated) -1.07%
CCCC12CN3CC(C)(CN(C1)C3c1ccc(OCc3ccccc3)cc1)C2=O (configuration not stated) -0.009%
Cc1cccc(CNC(=O)CN2C(=O)CCn3nc(-c4cn(C)c5ccccc45)cc32)c1 0%
CCN(c1ccccc1)S(=O)(=O)c1ccc(NC(=O)c2nc(SC(C)C)ncc2Cl)cc1 -0.166%
CCOC(=O)c1cnc2ccc(OCC)cc2c1Nc1ccc(OCc2ccccc2Cl)cc1 2.41%
Cc1cccc(CNC(=O)CN2C(=O)CSc3c2c(C)nn3-c2ccccc2)c1 -3.31%
COc1cc(C(CC(=O)Nc2ncccc2C)N2Cc3ccccc3C2=O)cc(OC)c1OC (configuration not stated) -0.44%
CC(=O)c1cc(-c2ccc(F)cc2)n(CCC(=O)Nc2nc3ccc(C)cc3s2)c1C 0.745%
COc1ccc(-c2nc3cc(NC(=O)c4ccc(C)cc4)ccc3o2)cc1Cl 18.1%
CCOc1ccc(Br)cc1C1NC(=O)c2c(sc3c2CCN(C)C3)N1 (configuration not stated) -5.95%
O=C(OCc1cc(=O)n2nc(C3CC3)sc2n1)c1ccc(NC(=O)c2ccccc2F)cc1 0%
Cc1ccc(C(=O)N2CCC(C)CC2)cc1NC(=O)c1nsc2ccccc12 5.85%
CC1CCN(S(=O)(=O)c2ccc3nc(N4CCN(c5ccc(F)cc5)CC4)ccc3c2)CC1 -2.38%
COc1ccc(CCNc2ncnc3onc(C)c23)c(OC)c1 0.688%
Cc1ccc(S(=O)(=O)c2cc3cc(C(=O)Nc4ccc(C)cc4C)ccc3oc2=O)cc1 -0.0801%
CC1CCCCN1CCCNC(=O)Cn1ncc2c3ccccc3n(C)c2c1=O (configuration not stated) 1.85%
CCc1ccccc1NC(=O)c1ccc(F)c(S(=O)(=O)N2CCN(c3cccc(Cl)c3)CC2)c1 2.75%
COc1cccc(C(=O)N(Cc2ccc(C)o2)C2CCS(=O)(=O)C2)c1 (configuration not stated) 2.45%
COc1ccc(-c2cc(C(F)(F)F)nc(NCc3ccc(F)cc3)n2)cc1 0.101%
CCOc1ccc(NC(=O)CSc2oc(-c3ccc(C)cc3)nc2S(=O)(=O)c2ccc(C)cc2)cc1 0%
Cc1ccc(O)c(-c2n[nH]c3c2C(c2ccc(F)cc2)N(Cc2ccco2)C3=O)c1 (configuration not stated) 4.54%
O=C(COCc1cc(-c2cccs2)on1)Nc1cc(C(F)(F)F)ccc1Cl -12.6%
Cc1cc(C)c(NC(=O)CSc2nc3c([nH]c4ccccc43)c(=O)n2C)c(C)c1 0.601%
COc1ccc(CCNC(=O)c2ccc(Cn3c(=O)[nH]c4cc(OC)c(OC)cc4c3=O)cc2)cc1OC 3.29%
CCCCNC(=O)CN1CCN(c2ncc(NC(=O)c3ccc(Cl)cc3)cc2C(=O)O)CC1 1.92%
COc1cc(NC(=O)C2CCN(c3nc4ccccc4nc3C(F)(F)F)CC2)cc(OC)c1 -11.5%
CCc1ccccc1N(CC)C(=O)C1CCN(c2ncnc3c2nc2n3CCCCC2)CC1 -2.98%
CCCOc1cccc(C2c3c(oc4ccc(F)cc4c3=O)C(=O)N2c2nc(C)c(C(C)=O)s2)c1 (configuration not stated) 0.484%
O=c1c2ccccc2n(Cc2cccc(Cl)c2)c(=O)n1Cc1ccccc1 -0.869%
CCN(C(=O)Cn1ncc2c(=O)oc3ccccc3c21)c1ccccc1F -10.2%
CN1CCN(C(CNC(=O)c2c(F)cccc2F)c2ccc3c(c2)OCO3)CC1 (configuration not stated) -17.1%
Cc1cccc(N2CCN(C(=O)c3cc4ccc5cccnc5c4[nH]3)CC2C)c1 (configuration not stated) -10.3%
CCC(C)NC(=O)c1sc2nc3n(c(=O)c2c1C)CCC3 (configuration not stated) 9.21%
COCCc1nn2c(=O)cc(COC(=O)c3ccc(Br)cc3)nc2s1 5.55%
COCCCNc1nc(NCc2ccc(C)cc2)c2cnn(C)c2n1 0.763%
O=c1oc2ccccc2cc1-c1nc(-c2cccs2)no1 -7.26%
COc1ccccc1-c1nc(SCC(=O)c2ccc(Cl)cc2)n[nH]1 -18.9%
CCC(=O)Nc1sc2c(c1C(=O)Nc1ccc(Br)cc1)CCCCC2 10.7%
COc1ccccc1NC(=O)c1sc2nc(C)c(C(=O)Nc3ccc(C)cc3C)c(-c3ccccc3Cl)c2c1N 0%
COc1cc(OC)cc(C(=O)NCCc2csc(-c3ccc(C(F)(F)F)cc3)n2)c1 -11.2%
Cc1ccc2oc(=O)c3cc(C(=O)NCCc4ccc(Cl)cc4)sc3c2c1 3.36%
CCS(=O)(=O)N1CCc2cc(C(=O)NCc3ccccc3Cl)ccc21 -4.04%
COc1ccc(NC(=O)C(C(C)C)N2Cc3ccccc3C2=O)cc1 (configuration not stated) -23.1%
CCCCc1nn2c(=O)cc(COC(=O)c3ccccc3C)nc2s1 -5.55%
Cc1ccc(-n2nc3c(=O)n(C(C)C(=O)NCc4ccccc4C)nc(C)c3c2C)cc1 (configuration not stated) -2.48%
CCc1ccccc1NC(=O)NC(CC)Cn1nnc2ccccc2c1=O (configuration not stated) -3.38%
Cc1ccc(C)c(NC(=O)CSc2nc(=O)n(Cc3ccncc3)c3c2CCC3)c1 -13%
CC(=O)N1c2ccc(S(=O)(=O)NCCC(=O)N(C)Cc3ccccc3)cc2CC1C (configuration not stated) -1.98%
COC(=O)c1cc2sc(C)cc2n1Cc1nc(-c2ccc(C)cc2)oc1C 1.03%
Cc1cc2n(n1)CCC(=O)N2Cc1ccc(C(=O)Nc2cccc(C(F)(F)F)c2)cc1 -0.712%
COc1ccc(-c2noc(CSc3nc4ccccc4[nH]3)n2)cc1 -0.683%
CC(C)c1ccc(Nc2c(-c3ccc(N(C)C)cc3)nc3cnccn23)cc1 18.1%
Cc1ccc(Nc2c(-c3ccc(C)cc3)nc3c(C)cccn23)cc1 -2.33%
O=C(NCCc1ccc(Cl)cc1)C(=O)NCC(c1cccs1)S(=O)(=O)c1ccccc1 (configuration not stated) -18.6%
CCc1cccc(C)c1NC(=O)CCS(=O)(=O)c1ccc2c(c1)oc(=O)n2C 0%
COc1cccc(CN(C(=O)c2oc3ccccc3c2C)C2CCS(=O)(=O)C2)c1 (configuration not stated) -9.01%
CNC(=O)c1c(NC(=O)Cc2coc3ccc(OC)cc23)sc2c1CCCC2 -3.15%
COc1ccc(C2CC(=O)Oc3c2c(=O)n(C)c2ccccc32)c(OC)c1OC (configuration not stated) -1.26%
O=C(COc1ccccc1)Nc1ccc2nc(SCC(=O)N3CCCC3)sc2c1 -9.27%
CCOc1ccc(NC(=O)CS(=O)(=O)Cc2nc(-c3ccc(C)cc3)oc2C)cc1 0%
CCOC(=O)c1ccc(NC(=O)c2ccc(-c3cccc(Cl)c3C)o2)cc1 9.33%
CCOc1ccc(CCNC(=O)c2cc3c(-c4ccccc4F)nn(C)c3s2)cc1OCC -0.828%
COc1ccc(C2c3c(-c4ccc(F)cc4)n[nH]c3C(=O)N2c2ccccc2)cc1OC (configuration not stated) 4.81%
Cc1ccccc1CNC(=O)CCSCc1cnn(-c2ccccc2)c1-n1cccc1 -1.25%
COc1ccc(C2c3c(oc4ccccc4c3=O)C(=O)N2c2nc(C)c(C)s2)cc1 (configuration not stated) -4.44%
Cc1ccc(S(=O)(=O)N(CC(=O)Nc2c(C)cccc2C)c2cccc(Cl)c2)cc1 0.705%
Cc1nc2nc(C)c(CCC(=O)NCCc3ccccc3)c(C)n2n1 2.09%
O=C(Cn1cc(S(=O)(=O)Cc2ccccc2Cl)c2ccccc21)Nc1cccc(C(F)(F)F)c1 -14.4%
CCOc1ccc(C(NC(=O)c2cc(OC)c(OC)c(OC)c2)c2cc(Cl)c3cccnc3c2O)cc1 (configuration not stated) -4.6%
Cc1ccc2nc(CN3CCN(S(=O)(=O)c4ccccc4)CC3)oc2c1 2.62%
CC(C)Oc1cccc(C(=O)Nc2ccc3oc(-c4ccccc4)nc3c2)c1 1.92%
CCc1ccc(NC(=O)CSc2nc3ccccc3c(=O)n2CCC(=O)NC2CCCCC2)cc1 0.474%
COC(=O)c1cc(C)nc2c1c(=O)nc(SCc1c(C)cc(C)cc1C)n2C1CC1 0%
CCC(=O)N1c2ccc(S(=O)(=O)N3CCCCCC3)cc2CC1C (configuration not stated) -0.941%
CCC(Sc1nc2cc3c(cc2c(=O)n1CCCC(=O)NCc1ccc2c(c1)OCO2)OCO3)C(=O)NCCCOC (configuration not stated) -5.53%
Cc1ccc(NC(=O)COc2ccc(-c3nn(C)c(=O)c4ccccc34)cc2)c(C)c1 -19.9%
Nc1c(-c2nc(-c3ccccc3Cl)no2)nnn1-c1ccccc1F -0.69%
COC(=O)c1cc2oc3ccccc3c2n1CC(=O)Nc1ccc(N(C)C)cc1 1.29%
CCC(=O)Nc1nnc(S(=O)(=O)N2CCCCCC2)s1 -3.35%
Cn1cc(S(=O)(=O)N2CCCCC2)cc1C(=O)NCc1ccc(Cl)cc1 -0.969%
COc1ccc(NC(=O)C(NS(=O)(=O)c2cccc3nsnc23)c2ccccc2)cc1 (configuration not stated) -10.5%
CCOc1cc(-c2nnc(SCC(=O)NCCCOC)nc2-c2ccc(OC)c(OCC)c2)ccc1OC -11.3%
